# Test results: the supplement of paper PMC11417369
# This is one part of the list.
# System: PF3D7_0420300 AP2 domain 1 (GST-tagged)
# Assay: gcPBM binding intensity (ln(normalized median fluorescence intensity)); higher = stronger DNA binding
# How it was run: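 DNA-binding domains from P. falciparum, fused to GST and produced in E. coli, were put on an Agilent 4 × 180k double-stranded probe array for 1 h in 1× PBS holding 1% milk, 0.2 mg/ml BSA, 0.5% salmon testes DNA and 0.03% Triton X-100. Probes were primer-extended, 36 bp long and drawn from intergenic genomic regions, with negative controls included. After Alexa488 anti-GST antibody detection and a 488 nm scan, binding intensity was set as the highest Masliner-normalised natural-log median intensity across replicate spots of either probe orientation.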
row,Sequence,gcPBM binding intensity (ln)
1,AATTAAATTTATATGAATGTCAATTATATTGTTATA [XGTACX_negctrl_site261],9.11
2,TTGAATTAAAAACATACATGCATATATATATATATA [TGCATGCA_site319],8.99
3,TTATAAAATGGGCAAACACACACAAAAAAAAGATAT [CACACA_site8476],10
4,AATAAATTACTATGTACACACATAAGAGTATAAATA [CACACA_site6940],9.52
5,AAAAAGTTACATGGTGGTACTCAAATAAAATATTCT [XGTACX_site5993],9.28
6,TATAACTTTTATAGGTGTACCCAATATTATATATAG [XGTACX_site7673],8.99
7,CCATCTTTTTTACGATGTACAAGTATAAGGTATACG [XGTACX_site2697],9.04
8,TATATATAATAAGAAGGTACACGTAAGTAATAATTT [XGTACX_site934],9.67
9,TTTATATGTTTTGTATTTTTAATAAATATTTTATTA [TGCATGCA_negctrl_site20],9.29
10,AAATAAATAAATTAACGTACATAATAACATTAATAT [XGTACX_site8567],9.47
11,ATATATATATATGTATGTACACATATTTTTTAACTT [XGTACX_site431],9.35
12,TATATATATATTATTAGTACTTATTTTTTTTCATAT [XGTACX_site1279],9.45
13,TGTAAAACCTCCTACACACACCAATTAACTATTCTA [CACACA_site7074],9.59
14,TTATATTATAGACACACACACAAAAAAAAAAAAAAA [CACACA_site3816],9.81
15,AATATAATTATATGTGGTACAGAAATAATATAAAAT [XGTACX_site2366],9.51
16,TTCTTTTTTTTTCTGGGTACATATATTCCAATCACT [XGTACX_site4770],9.51
17,TTATAAAAGACAAAAGTGCATATATACATATGTATA,9.19
18,CTACATACAAGAATTAAACACACACTAATTATAAAT [CACACA_site8986],9.75
19,CCTCAATATTCACATACACACAATATCATCGAAGTA [CACACA_site1676],9.6
20,TTATAATTTTAATGTGCACACAATTAAAATATTATA [CACACA_site5172],8.99
21,TATAAATAAATATACACACACACATATAAATATGTA [CACACA_site6504],10.1
22,TATTGACAAAAAAAAAAAAGGTAAAAAAGAAAGAAA [GTGCAC_negctrl_site418],9.3
23,TTTTGTTTATGTGTGCATTATATTATATTTTTTATT [TGCATGCA_negctrl_site146],9.76

row,Sequence,gcPBM binding intensity (ln)
1,TGTAAGAAATTGAGCGCACACATACATCTGTGGGAT [CACACA_site4945],9.55
2,AAAGAAAGGAATACGACACACAAAAAAAAAATATAT [CACACA_site1934],10
3,TAGTTGCACATGTATACACACAAAAAATATTTTATG [CACACA_site475],9.48
4,AATAAATATAGGTACACACACAAATATGTACATATC [CACACA_site6976],9.91
5,AAGAAACCATAATATGCATGCACATATTAATAAATA [TGCATGCA_site693],9.37
6,AAGTGGTTATAATCAACACACGTGGAATGTACTTTA [CACACA_site3700],9.34
7,AAATATTTTAACGAGAGTACATAATAACAATTTATG [XGTACX_site3865],9.32
8,GAAAGAATAAAATTTACACACATATATAAATACATA [CACACA_site5273],9.61
9,TTTTTTTTTTTTTATTGTACTAAATTATAGAGGGGA [XGTACX_site2609],8.79
10,AAAAAAAAAAAATACACACACACATATATATATATA [CACACA_site731],9.79
11,ATAAAACAACACACTTGTACTAATTTTTTTTTTTTT [XGTACX_site8377],9.32
12,TAATTTATAAGGTATAACAACAATTGCATCTATCAC [XGTACX_negctrl_site314],9.22
13,TGAATAAATAGACACACACACATATATAAATATGTA [CACACA_site6159],10
14,TTTTTTTTTTTTTTGACACACATAATAAAATACAAA [CACACA_site3080],8.94
15,AATAAGCATATACAAACATGCATACATATAAATAAA [TGCATGCA_site338],9.3
16,GAAACGATTTAATACACACACGTATTATAGATATAT [CACACA_site6666],9.63
17,TATATATTTGTAACGGGTACGTAGGTGTATATTCCA [XGTACX_site6028],9.4
18,AGCCACGTGGTATATACACACATAATCAAATAAAAT [CACACA_site9364],9.68
19,TCTATAAAGGAATATACACACATATATAAATATGTA [CACACA_site6332],9.41
20,TTTTGTTATAAATAATGTACATATTTATTTAAAATT [XGTACX_site6610],8.93
21,AAAAACAGAAATGTAACACACAAAAATTCTATTTAT [CACACA_site4026],9.62
22,TATAAAAATGTGCACACACACACATATTTATATTTA [CACACA_site6826],9.84
23,AACCTTTATATGTAAAGTACAAAAAAGAGTAAAAAA [XGTACX_site5506],9.2

row,Sequence,gcPBM binding intensity (ln)
1,AAAATCATTCCAAAGACATGCATTTTGCAAATAAAA [TGCATGCA_site461],8.95
2,TATATTATATACCATTGTACATATAATATAGGTTCT [XGTACX_site7047],9.27
3,ACAAGTTTTTTTTTATCACACACAAAAAAAAAAATA [CACACA_site8377],9.35
4,TATTTACCCTCATGTTGTACTTTTCATTCATTTTAT [XGTACX_site7794],9.69
5,AACATACATAGACACACACACACACGCACACGCACA [CACACA_site6373],10.3
6,GAAAATACGTTTAATCGTACATATATATAATATATA [XGTACX_site4243],9.09
7,ATTAATTATAATGTATGTACATAACTTTTTTATATT [XGTACX_site5784],9.31
8,TTTATTATTTTTAGGAGTACACAAAATAAAACAAAT [XGTACX_site8841],9.09
9,AGAAAAGTTTAATACAGTACATAAACAAAGTATAGG [XGTACX_site2386],9.48
10,GTATATTTATAGCCTTTATTATATTTAATATTATTA [TGCATGCA_negctrl_site26],9.44
11,TATAATATTATATATAAACACACATACACATGTAAA [CACACA_site8631],9.63
12,GTTATATTTTTTTATACACACTGGAATATATAAATA [CACACA_site4282],9.35
13,ATAATTATATATTTATGTACGCATAAATATTTATAT [XGTACX_site5765],9.14
14,TATTTATTGTGATACTACTATTATTTTATGATTAAA [CACACA_negctrl_site284],9.25
15,ACCCAATTTTAAAATGAACACACATGTTTTTCTTAC [CACACA_site8246],9.52
16,TATACAACTTTATGAAGTACAAAAAGTTCTATATAT [XGTACX_site3866],8.99
17,TTGTTTTATTATTCGATGCACTACAGAAATATATTC,9.16
18,TATATATAACTTTATTGTACAAAATATTATGTATTC [XGTACX_site981],9.19
19,TTATATTATTTTTAATGTACTTTTTATGAATACAAA [XGTACX_site689],9.01
20,AACTATATCATTTATTTTATTTTTTAAATACATTTA [CACACA_negctrl_site183],9.12
21,AATATATGTATGTACGCATGTATGTATCTATGTATT [TGCATGCA_site389],9.36
22,TTATAATTATATACATGTACATATAATACATATATA [XGTACX_site8904],9.08
23,ATATGGGTAATGAATTGTACTCTTTCTTGTTGTTCT [XGTACX_site4487],9.65

row,Sequence,gcPBM binding intensity (ln)
1,TGTAATAAATAGTACACACACACATATTTATATATC [CACACA_site6770],10.1
2,GTATAATTTTCGTATTCACACAAGAATATACTACAT [CACACA_site4877],9.37
3,TATACATATTTTATAGCACACAAATAATAATATGTA [CACACA_site8129],9.23
4,CCAACTATATTATGAAGTACATATATATTATATATA [XGTACX_site5767],9.13
5,AAACCTACATAACATACACACGCATATATATAATTT [CACACA_site8923],9.69
6,TTTTTTTTTTTTTATTGTACATGCAAAAAATTCCAC [XGTACX_site2371],8.85
7,GTAAGTATATATAAATGTACTTATGAGGTCAAATTA [XGTACX_site3392],9.24
8,TTGGGTATTTTGTGCGCACACACATGCAAAAAGAAA [CACACA_site8299],9.44
9,TCTGTATTTCCTTATGCATGCATTAGCAAGATAATA [TGCATGCA_site483],9.23
10,ATATATATATATTGTAGTACTTATTAAATTATTTAT [XGTACX_site6235],9.38
11,TAAGTATACTCATACACACACACACTAGAAAAAAAA [CACACA_site4397],10
12,AGAGATACATAAAAAAGTACATATAAAATTTAGGAA [XGTACX_site7201],9.38
13,TATTTATTTATATACACACACTTGTATAAAAAATGT [CACACA_site7048],9.5
14,TGCGACCATAATAAAGCACACAATGAAAAATATATA [CACACA_site256],9.49
15,TACAAATTAATATGTACACACAAATATATATATATA [CACACA_site1977],9.49
16,ATAATATGAAACTAAGGTACACATATATTAACAGAG [XGTACX_site3842],9.52
17,TGTGCTCAAAATTATGCACACACCTAAAATTAATTT [CACACA_site8950],9.4
18,ATGAGAAAATATATTATTTTATATGAACAAGTTTAT [XGTACX_negctrl_site372],9.02
19,AAAATTATATATTATAGTACATAAAATATTGATAAA [XGTACX_site8988],9.05
20,AAATGTTATATATAATGTACTTGTAAGAACGTTCCT [XGTACX_site2840],9.21
